# Some of the results follow. Antibody binding of pooled human sera (four to six donors per pool; dilution not stated) to peptides of the Trypanosoma cruzi antigen TSSA on microarrays. Quantile-normalised fluorescence in arbitrary units, mean of duplicate arrays; higher = more binding. No active / inactive call. The uninfected pools are read here as the healthy donors of the same country. The strongest signals lie near the top of the scale (about 60,000).
# Experiments:
# Experiment in all cases: antibody binding signal (normalised fluorescence) (arbitrary fluorescence units); higher = stronger serum antibody binding to peptide
# [1] = system: pooled sera of chronic Chagas disease patients, Argentina
# Method: (§1)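 Microarray of overlapping 15-residue peptides of the four Trypanosoma cruzi TSSA reference variants and 8- to 13-residue peptides of TSSAII 24-62, probed with one serum pool per country.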
# [2] = system: pooled sera of chronic Chagas disease patients, Bolivia
# Method: as §1
# [3] = system: pooled sera of chronic Chagas disease patients, Brazil
# Method: as §1
# [4] = system: pooled sera of chronic Chagas disease patients, Colombia
# Method: as §1
# [5] = system: pooled sera of chronic Chagas disease patients, Mexico
# Method: as §1
# [6] = system: pooled sera of chronic Chagas disease patients, USA
# Method: as §1
# [7] = system: pooled sera of uninfected people, Argentina
# Method: as §1
# [8] = system: pooled sera of uninfected people, Bolivia
# Method: as §1
# [9] = system: pooled sera of uninfected people, Colombia
# Method: as §1
# [10] = system: pooled sera of uninfected people, Mexico
# Method: as §1
# [11] = system: pooled sera of uninfected people, USA
# Method: as §1
Sequence,antibody binding signal [1],antibody binding signal [2],antibody binding signal [3],antibody binding signal [4],antibody binding signal [5],antibody binding signal [6],antibody binding signal [7],antibody binding signal [8],antibody binding signal [9],antibody binding signal [10],antibody binding signal [11]
PSGTENKPATGEA,43300,41100,46600,1070,2960,24700,2150,1270,342,526,980
SGTENKPATGEAP,49900,42700,46300,514,867,45700,2050,1520,205,408,252
PSQPGASSGEA,346,221,8170,92.6,194,98.5,121,111,95.5,300,87.6
KTAAGEAPSPSGASS,162,258,821,204,3180,4110,219,189,120,78.3,211
TPPSGTEN,38700,31500,26200,71.8,293,172,296,147,102,92.9,105
STISTPPSGTDKKTA,20800,17200,39300,3670,27900,7110,458,128,221,1580,232
LSACTTANGGSTSST,166,162,291,226,190,204,142,175,218,182,113
NGGSTSST,238,199,272,156,182,152,85.1,167,104,110,94.5
TGEAPSQPGASSGEA,8860,26200,17400,135,97,2250,278,107,83.1,126,78.8
TENKPATGEAPSQPG,48300,43800,45400,367,630,41100,953,776,138,191,194
SSGEAEASSNKNDGS,269,1510,2870,507,1260,1150,155,278,119,1290,679
PATGEAPSQPG,41000,48200,45400,239,184,26900,668,131,170,143,129
TGEAPSQPG,12600,27900,21700,193,119,3000,156,94.3,75.3,105,101
TENKPATG,45000,1350,1360,167,981,506,532,1540,191,259,223
TANGGSTSSTP,511,265,905,545,323,384,228,178,135,163,218
TPPSGTENK,51900,46300,49500,394,8460,25200,3190,516,901,399,418
SQPGASSGEAEAS,142,126,8370,97.4,140,115,212,131,112,80.7,205
PSGTENKPA,50000,36600,49400,2060,8250,17500,2530,1890,872,702,1080
SSTPPSGTENKPATG,49100,54100,53700,1690,5810,45800,9430,2250,866,661,981
PSQPGASSG,3280,214,736,171,895,264,159,183,177,1830,236
AGGTPSPSGASSGEA,302,282,3780,441,746,197,182,148,186,128,289
TSSTPPSGTE,13100,652,10400,151,157,83.2,135,77.5,82.4,106,60.5
ENKPATGEAPSQPGA,45700,51300,48600,390,532,45700,1010,742,239,312,246
PATGEAPSQPGA,42600,47200,46900,173,186,29400,758,154,228,232,185
TGEAPSQPGASS,10800,38800,20100,86.5,111,2700,216,117,117,160,114
ATGEAPSQPGASSGE,17100,37700,32200,315,344,8910,557,187,99.2,165,88.5
TDKKTAAGEAPSPSG,441,297,685,473,438,6850,172,156,1020,148,163
GTENKPATGE,36200,28100,35000,1840,2580,22000,564,1610,130,185,142

Sequence,antibody binding signal [1],antibody binding signal [2],antibody binding signal [3],antibody binding signal [4],antibody binding signal [5],antibody binding signal [6],antibody binding signal [7],antibody binding signal [8],antibody binding signal [9],antibody binding signal [10],antibody binding signal [11]
DKKTAAGGTPSPSGA,892,240,360,9850,504,1770,152,101,231,193,215
GEAPSQPGASS,7940,45600,9890,96.9,106,1340,206,166,115,156,141
NGGSTISTPPSGTEK,36200,24600,31300,176,23200,6790,759,255,277,184,170
KPATGEAPSQPGASS,45000,44700,50700,167,299,33800,818,809,128,237,206
ATGEAPSQPGAS,13800,39800,39100,721,974,12400,536,1140,380,239,1050
PPSGTDKKTAAGEAP,8930,9770,20000,2530,31200,4460,355,356,797,896,212
CTTANGGSTISTPPS,524,673,975,125,198,221,575,225,1950,150,140
ENKPATGEAPSQP,45500,48800,51300,305,486,41000,942,683,109,159,159
NKPATGEAPS,45300,46900,46300,331,172,46500,912,691,168,249,136
KTAAGGTPSPSGASS,1310,166,240,8490,2810,1270,190,157,129,443,243
PPSGTENKPATGE,45000,43700,45900,869,4260,28500,7100,1430,466,525,686
GGTPSPSGASSGEAE,174,120,5850,199,1110,235,225,215,275,112,244
TSSTPPSGTENKPAT,48400,52900,54700,1700,5960,43100,6490,1170,754,461,974
GSTSSTPPSGT,291,259,603,208,271,141,206,208,115,150,83.6
NGGSTSSTPPSGTEN,41200,42200,28000,217,253,274,483,194,149,142,157
ANGGSTSSTPPSGTE,12900,1770,10300,1470,2630,1490,181,225,111,199,91.7
STPPSGTENKPAT,46000,48700,54300,2070,6710,46100,8660,1320,880,714,979
TANGGSTS,214,175,255,117,280,717,145,146,130,194,585
KPATGEAPSQ,46700,53100,48300,252,216,37500,754,657,146,207,170
EKKAAAGEAPSPSGA,3120,180,2080,462,479,10500,233,1040,92.8,162,830
ASSGEAEASSNKNDG,215,1690,3760,705,1380,1070,207,448,154,2480,564
SGTEKKAAAGEAPSP,692,599,4720,838,811,12400,106,766,130,122,188
EAPSQPGASSGE,8410,34800,8180,95.5,111,240,269,104,139,137,81.5
STSSTPPSGTEN,40800,43400,28000,390,176,419,362,166,95.8,160,177
AAGGTPSPSGASSGE,284,273,3130,1010,2000,262,234,140,566,109,303
NKPATGEAPSQPGAS,29400,48600,49300,464,234,37600,1140,1160,470,309,1250
ACTTANGGSTISTPP,236,226,294,162,140,136,426,178,461,140,418

# From the supplement of paper PMC10441789
